# Reference: patent US10299477B2 (priority 2015, dated 2019)
# Columns and labels:
# Format in all cases: in vivo
# Botrytis cinerea = experiment: Test Example B: Gray mold on tomato; settings: for Test B (control value class): gray mold on tomato, Botrytis cinerea; for Test B (control value class) / Test B control value (gray mold on tomato): 250 ppm spray; for Test B control value (gray mold on tomato): preventive, control value class; for Test B control value: Gray mold on tomato; for Test B (control value class, gray mold on tomato): in vivo
# Source text: [Test Example B] Gray Mold on Tomato
# Seeds of a test plant (tomato variety: Oogata Fukuju) were planted followed by cultivating until three to five first leaves (true leaves) appeared.
# Puccinia recondita = experiment: Test Example E: Brown rust on wheat; settings: for Test E (control value class): brown rust on wheat, Puccinia recondita; for Test E (control value class) / Test E control value (brown rust on wheat): 250 ppm spray; for Test E control value (brown rust on wheat): preventive, control value class; for Test E control value: Brown rust on wheat; for Test E (control value class, brown rust on wheat): in vivo
# Source text: [Test Example E] Brown Rust on Wheat
# Plasmopara viticola = experiment: Test Example G: Downy mildew on vine; settings: for Test G (control value class): downy mildew on vine, Plasmopara viticola, 250 ppm spray; for Test G (control value class) / Test G control value (downy mildew on vine) / Test G control value: 7-10 days after inoculation; for Test G control value (downy mildew on vine): 250 ppm spray (2.5 ml/pot), preventive, control value class; for Test G control value: Downy mildew on vine, 250 ppm sprayed before inoculation; for Test G (control value class, downy mildew on vine): 250 ppm, sprayed 2.5 ml/pot before inoculation, evaluated 7-10 days after inoculation
# Source text: [Test Example G] Downy Mildew on Vine
# Seeds of a test plant (grape variety: Neomuscat) were planted followed by cultivating until three to four first leaves appeared. […] After the sprayed dilutions were dried, a zoosporangia suspension (1-2×10^4 zoosporangia/ml) of Plasmopara viticola was inoculated to the plants by spraying.
# [1] = system: Blumeria graminis f sp. hordei; experiment: Test Example D: Powdery mildew on barley; settings: for Test D (control value class): powdery mildew on barley; for Test D (control value class) / Test D control value (powdery mildew on barley): 250 ppm spray; for Test D control value (powdery mildew on barley): preventive, control value class; for Test D control value: Powdery mildew on barley; for Test D (control value class, powdery mildew on barley): in vivo
# Source text: [Test Example D] Powdery Mildew on Barley
# After the sprayed dilutions were dried, conidia of Blumeria graminis f sp. hordei were inoculated to the plants by shaking off.
# Alternaia brassicicola = experiment: Test Example C: Alternaria sooty spot on cabbage; settings: for Test C (control value class) / Test C control value: Alternaria sooty spot on cabbage; for Test C (control value class) / Test C control value (Alternaria sooty spot on cabbage): 250 ppm spray; for Test C control value (Alternaria sooty spot on cabbage): preventive, control value class; for Test C (control value class, Alternaria sooty spot on cabbage): in vivo
# Source text: [Test Example C] Alternaria Sooty Spot on Cabbage
# Seeds of a test plant (cabbage variety: Shikidori) were planted followed by cultivating until the cotyledons extended.
structure (smiles),measurement,setting,value
Cn1c(-c2c(F)cccc2F)c(-c2c(F)cccc2Cl)cc(Cl)c1=O [Compound 405],Test B (control value class),Botrytis cinerea,H (H shows more than 50% of control values)
same,Test E (control value class),Puccinia recondita,H (H shows more than 50% of control values)
same,Test G (control value class),Plasmopara viticola,L (L shows 50% or less of control values)
same,Test D (control value class),[1],H (H shows more than 50% of control values)
same,Test C (control value class),Alternaia brassicicola,H (H shows more than 50% of control values)
CCN1C(=O)CCC(c2cc(OC)cc(OC)c2)=C1c1ccccc1F [Compound 225],Test B control value (gray mold on tomato),Botrytis cinerea,H (H shows more than 50% of control values)
same,Test E control value (brown rust on wheat),Puccinia recondita,H (H shows more than 50% of control values)
same,Test G control value (downy mildew on vine),Plasmopara viticola,H (H shows more than 50% of control values)
same,Test D control value (powdery mildew on barley),[1],L (L shows 50% or less of control values)
same,Test C control value (Alternaria sooty spot on cabbage),Alternaia brassicicola,H (H shows more than 50% of control values)
CCn1c(-c2c(F)cccc2F)c(-c2ccccc2C)ccc1=O [Compound 160],Test B control value,Botrytis cinerea,H (H shows more than 50% of control values)
same,Test E control value,Puccinia recondita,H (H shows more than 50% of control values)
same,Test G control value,Plasmopara viticola,H (H shows more than 50% of control values)
same,Test D control value,[1],H (H shows more than 50% of control values)
same,Test C control value,Alternaia brassicicola,H (H shows more than 50% of control values)
CCn1c(-c2c(F)cc(OC)cc2F)c(-c2cccc(F)c2F)cc(C)c1=O [Compound 610],"Test B (control value class, gray mold on tomato)",Botrytis cinerea,H (H shows more than 50% of control values)
same,"Test E (control value class, brown rust on wheat)",Puccinia recondita,H (H shows more than 50% of control values)
same,"Test G (control value class, downy mildew on vine)",Plasmopara viticola,L (L shows 50% or less of control values)
same,"Test D (control value class, powdery mildew on barley)",[1],H (H shows more than 50% of control values)
same,"Test C (control value class, Alternaria sooty spot on cabbage)",Alternaia brassicicola,H (H shows more than 50% of control values)
CCn1c(-c2c(F)cc(OC)cc2F)c(-c2cccc(F)c2Cl)ccc1=O [Compound 489],Test B (control value class),Botrytis cinerea,H (H shows more than 50% of control values)
same,Test E (control value class),Puccinia recondita,H (H shows more than 50% of control values)
same,Test G (control value class),Plasmopara viticola,H (H shows more than 50% of control values)
same,Test D (control value class),[1],H (H shows more than 50% of control values)
same,Test C (control value class),Alternaia brassicicola,H (H shows more than 50% of control values)
CCn1c(-c2ccccc2F)c(-c2cc(OC)cc(OC)c2Cl)ccc1=O [Compound 232],Test B control value (gray mold on tomato),Botrytis cinerea,H (H shows more than 50% of control values)
same,Test E control value (brown rust on wheat),Puccinia recondita,H (H shows more than 50% of control values)
same,Test G control value (downy mildew on vine),Plasmopara viticola,L (L shows 50% or less of control values)
same,Test D control value (powdery mildew on barley),[1],H (H shows more than 50% of control values)
same,Test C control value (Alternaria sooty spot on cabbage),Alternaia brassicicola,H (H shows more than 50% of control values)
CCn1c(-c2c(F)cccc2F)c(-c2cccc(C(F)(F)F)c2)ccc1=O [Compound 284],Test B control value (gray mold on tomato),Botrytis cinerea,H (H shows more than 50% of control values)
same,Test E control value (brown rust on wheat),Puccinia recondita,L (L shows 50% or less of control values)
same,Test G control value (downy mildew on vine),Plasmopara viticola,L (L shows 50% or less of control values)
same,Test D control value (powdery mildew on barley),[1],H (H shows more than 50% of control values)
same,Test C control value (Alternaria sooty spot on cabbage),Alternaia brassicicola,L (L shows 50% or less of control values)
CCn1c(-c2c(F)cc(Cl)cc2F)c(-c2cc(F)ccc2Cl)ccc1=O [Compound 601],"Test B (control value class, gray mold on tomato)",Botrytis cinerea,H (H shows more than 50% of control values)
same,"Test E (control value class, brown rust on wheat)",Puccinia recondita,H (H shows more than 50% of control values)
same,"Test G (control value class, downy mildew on vine)",Plasmopara viticola,L (L shows 50% or less of control values)
same,"Test D (control value class, powdery mildew on barley)",[1],H (H shows more than 50% of control values)
same,"Test C (control value class, Alternaria sooty spot on cabbage)",Alternaia brassicicola,H (H shows more than 50% of control values)
"COc1cc(OC)c(Cl)c(-c2ccc(=O)n(C)c2-c2c(F)cc(F)cc2F)c1 [Compound 136, 5-(2-chloro-3,5-dimethoxyphenyl)-1-methyl-6-(2,4,6-trifluorophenyl)pyridine-2(1H)-one]",Test B control value,Botrytis cinerea,H (H shows more than 50% of control values)
same,Test E control value,Puccinia recondita,H (H shows more than 50% of control values)
same,Test G control value,Plasmopara viticola,H (H shows more than 50% of control values)
same,Test D control value,[1],H (H shows more than 50% of control values)
same,Test C control value,Alternaia brassicicola,H (H shows more than 50% of control values)
